# Measured values as given in paper PMC4336329 (PLoS ONE, 2015).
# Out of some 310,000 compounds screened, about 14,000 (4.5%) showed an effect of 50% or more. Effects have a minus sign here. The list shows a part of the results.
# Target: human ether-à-go-go-related gene (hERG) potassium channel (human, UniProt Q12809)
# Experiment: primary screen, population patch clamp on CHO cells stably expressing hERG
# 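Note: peak tail current of the secondary pulse compared with the same well before compound.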
# human ether-à-go-go-related gene (hERG) potassium channel, sequence (Q12809 whole entry, looked up): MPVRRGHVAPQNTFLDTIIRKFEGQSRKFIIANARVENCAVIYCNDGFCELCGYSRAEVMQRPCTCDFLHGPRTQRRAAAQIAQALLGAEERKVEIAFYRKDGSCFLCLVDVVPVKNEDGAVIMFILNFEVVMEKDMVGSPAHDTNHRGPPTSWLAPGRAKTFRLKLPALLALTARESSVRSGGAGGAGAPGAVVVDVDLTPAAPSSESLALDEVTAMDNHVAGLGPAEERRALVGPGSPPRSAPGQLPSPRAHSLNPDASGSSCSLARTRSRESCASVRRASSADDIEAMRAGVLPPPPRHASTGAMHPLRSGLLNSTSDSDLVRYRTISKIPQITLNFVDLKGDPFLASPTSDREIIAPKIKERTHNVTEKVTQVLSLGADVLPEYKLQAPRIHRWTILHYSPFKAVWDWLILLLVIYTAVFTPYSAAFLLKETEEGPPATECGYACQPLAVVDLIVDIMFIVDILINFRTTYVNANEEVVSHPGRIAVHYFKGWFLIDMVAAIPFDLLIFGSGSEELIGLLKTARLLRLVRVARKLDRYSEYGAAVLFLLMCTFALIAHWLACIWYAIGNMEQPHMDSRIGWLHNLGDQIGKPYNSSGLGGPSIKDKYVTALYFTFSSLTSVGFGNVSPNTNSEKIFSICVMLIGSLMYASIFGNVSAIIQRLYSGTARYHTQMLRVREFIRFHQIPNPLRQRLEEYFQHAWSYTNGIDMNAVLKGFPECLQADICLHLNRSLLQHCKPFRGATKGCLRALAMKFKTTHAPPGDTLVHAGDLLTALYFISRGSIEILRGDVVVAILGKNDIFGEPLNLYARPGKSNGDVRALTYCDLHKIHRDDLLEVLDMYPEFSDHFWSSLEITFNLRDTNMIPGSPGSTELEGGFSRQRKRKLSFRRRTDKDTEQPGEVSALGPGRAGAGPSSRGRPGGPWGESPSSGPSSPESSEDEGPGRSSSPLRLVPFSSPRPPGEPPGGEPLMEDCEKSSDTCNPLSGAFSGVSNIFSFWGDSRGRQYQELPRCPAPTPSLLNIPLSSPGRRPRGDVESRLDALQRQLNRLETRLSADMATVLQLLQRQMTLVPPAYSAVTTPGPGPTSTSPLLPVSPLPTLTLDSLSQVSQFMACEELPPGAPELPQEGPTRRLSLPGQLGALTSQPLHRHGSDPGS
row,Compound,"hERG current change (%, negative = inhibition) at 10uM [%]"
1,CCN(CC)S(=O)(=O)c1ccc(C)c(NCC(=O)Nc2ccc(C#N)c(Cl)c2)c1,-3.28
2,CCn1c(SCC(=O)N2CCN(c3ccc(Cl)cc3)CC2)nc2ccccc2c1=O,8.79
3,COc1cc(C(=O)Nc2nc3ccc(C)cc3s2)ccc1OCc1c(C)noc1C,-5.4
4,COc1cc(-c2cc(C(=O)NCc3ccco3)c3ccccc3n2)cc(OC)c1OC,-18.7
5,C#CCOCCOCCOCCNc1nc(N2CCN(C(=O)CCCCCCCCCCNC(=O)Cn3cc(C[C@@H](C)O)nn3)CC2)nc(N2CCN(C(=O)CCCCCCCCCCNC(=O)Cn3cc(C[C@@H](C)O)nn3)CC2)n1,13.2
6,CC(C(=O)NCc1ccc(F)cc1)c1ccc([N+](=O)[O-])cc1 (centres unmarked),-39.4
7,c1ccc2oc(-c3ccc(Nc4nc(N5CCCC5)nc(N5CCOCC5)n4)cc3)nc2c1,16.2
8,COc1ccc(NC(=O)c2ccc(NS(=O)(=O)c3cccc4cccnc34)cc2)cc1,7.19
9,O=C(O)Cn1c(SCc2ccccc2)nc2ccccc21,-28.7
10,O=C(CSc1nc(Nc2ccccc2)nc(N2CCOCC2)n1)Nc1ccccc1Cl,-15.8
11,CCOC(=O)c1nnn(-c2nonc2N)c1CN(CC)c1ccccc1,-10.8
12,CC(=O)c1c(C)nc2ccccn12,-7.46
13,CCc1ccc(-c2nc(CN3CCC(C(=O)NCc4ccccc4OC)CC3)c(C)o2)cc1,-68.4
14,O=C(O)COc1ccc2c(c1)CCCC2,12.6
15,CC(=O)N1CCOc2ccc(S(=O)(=O)N3CCC(C(=O)Nc4ccc(F)cc4)CC3)cc21,-13.3
16,CCN(CC)C(=O)C1=C(C)NC(=S)NC1c1cccs1 (centres unmarked),11.8
17,COc1ccc(CC(=O)NCC2CCCN(Cc3ccc(F)cc3F)C2)cc1 (centres unmarked),-17.5
18,O=C(c1cc(=O)c2ccccc2o1)N1CCN(c2ccccc2)CC1,1.71
19,COCCOC(=O)c1c(NC(=O)CN2CCc3ccccc32)sc(C(N)=O)c1C,5.03
20,CCCCN1CN(Cc2ccco2)CNC1=S,4.44
21,O=C(CNC(=O)c1ccc(F)cc1)NCc1ccccn1,-1.73
22,CC1=NN(c2ccccc2)C(=O)/C1=C\N(O)c1ccccc1,3.55
23,COC(=O)c1ccc2c(c1)NC(=O)C(N1CCCC1)S2 (centres unmarked),-4.37
